# Measurements as given in PubChem BioAssay AID686979 (National Center for Advancing Translational Sciences (NCATS), 2013).
# Screen size: about 420,000 compounds; about 50,000 (12%) were called active. This list was built around the results that the source calls inconclusive (neither active nor inactive); the mix of calls is not that of the screen. Calls come from the whole dose curve; as a rule, active = well fitted inhibition curve with a large enough effect; inconclusive = small, poorly fitted or top-dose-only effect; inactive = flat fitted curve, though single readings scatter. No potency is given beside an inconclusive call; the fits are too rough.
# Experiment: qHTS for Inhibitors of human tyrosyl-DNA phosphodiesterase 1 (TDP1): qHTS in cells in presence of CPT; note: nearly all actives have a fitted effect of over 55% in size
# Settings: chicken DT40 Tdp1-/-;hTDP1 cells + 20 nM CPT, ATP luminescence, 48 h; activity change, negative = growth inhibition: at 46.2 µM (top of the series)
# In short: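 Chicken DT40 Tdp1-/- cells complemented with human TDP1, 400 cells/well, exposed to compounds plus 20 nM camptothecin for at least 48 h at 37 C; viability read as ATP content by CellTiter-Glo luminescence.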
# % is set by controls: 0 for no effect and ±100 for the full control effect; potency is the fitted concentration of half-maximal effect; tags give direction and shape of the fitted curve.
Structure (SMILES),Potency,"activity change, negative = growth inhibition"
CCOc1ccc(Br)cc1C1NC(=O)c2c(sc3c2CCN(C)C3)N1 (centres undefined),"inconclusive [inhibitor, single point]",
COC(=O)C1(C)NC(c2cccc(C)c2)C2C(=O)N(c3ccccc3)C(=O)C21 (centres undefined),,inactive: -1.13%
CCOC(=O)CSc1nc2c(sc(=S)n2-c2ccc(CC)cc2)c(=O)[nH]1,,inactive: -29.5%
O=C(OCc1cc(=O)n2nc(C3CC3)sc2n1)c1ccc(NC(=O)c2ccccc2F)cc1,,inactive: -16.2%
Cc1cccc(-c2nc(CN3CCCC(C(=O)NC4CCCCC4)C3)c(C)o2)c1 (centres undefined),active: 20.6 µM,
CCOC(=O)c1c(/N=C/N(C)C)sc(/C=N/Nc2ccccc2)c1-c1ccccc1,"inconclusive [inhibitor, single point]",
COc1cccc(SCc2noc(C(=O)NCCCN3CCOCC3)c2C(=O)NCCCN2CCOCC2)c1,,inactive: -11.6%
COc1cccc(CN(C)C(=O)c2cc(-c3ccc(OC)c(OC)c3)nc3ccccc23)c1,active: 14.6 µM,
CCOCCCNC(=O)c1cn(CC)c2ccc(S(=O)(=O)N3CCCC3)cc2c1=O,,inactive: -22.2%
Cc1ccc(S(=O)(=O)N2CCOCC2)cc1NC(=O)C(c1ccc(Cl)cc1)C(C)C (centres undefined),"inconclusive [inhibitor, single point]",
CSCCC(NC(=O)c1ccccc1)C(=O)N1CCN(C(C)=O)CC1 (centres undefined),,inactive: -2.66%
Cc1cc(NC(=O)CSCC(=O)OCC(=O)c2cccc(Br)c2)no1,"inconclusive [inhibitor, partial curve]",
CN(CCCC(=O)NCCc1ccccc1)S(=O)(=O)c1ccc([N+](=O)[O-])cc1,,inactive: 4.78%
O=C(CSc1nc2c(oc3ccccc32)c(=O)n1CC1CCCO1)NCc1ccccc1 (centres undefined),"inconclusive [inhibitor, single point]",
Cc1cc(C)n2nc(C(=O)OC(C)C(=O)c3ccccc3)nc2n1 (centres undefined),,inactive: 5.8%
CCN(CC)S(=O)(=O)c1ccc(-c2nnc(SCC(=O)N3CCc4ccccc43)o2)cc1,"inconclusive [inhibitor, single point]",
O=C(CSc1nnc(-c2cccnc2)n1Cc1ccco1)N1c2ccccc2Sc2ccccc21,,inconclusive: -36% [inhibitor]
CC1CCN(S(=O)(=O)c2ccc3nc(N4CCN(c5ccc(F)cc5)CC4)ccc3c2)CC1,,inactive: -1.62%
Cc1ccc(NC(=O)CSc2nc3c(c(=O)[nH]2)CCCC3)cc1C,"inconclusive [inhibitor, single point]",
O=C1NC(Cc2ccccc2)C(=O)N1CC(=O)N1CCCc2ccccc21 (centres undefined),,inactive: 4.2%
CCOc1ccc(S(=O)(=O)N(C)c2ccc(OCC(=O)Nc3nc(-c4cc(OC)ccc4OC)cs3)cc2)cc1,"inconclusive [inhibitor, single point]",
COc1ccc(Nc2ncc(C#N)c(N)n2)c(OC)c1,,inactive: 6.43%
COC(=O)c1ccc2nc(-c3ccc(OC)c(OC)c3)c(Cc3ccccc3OC)n2c1,"inconclusive [inhibitor, single point]",

Structure (SMILES),Potency,"activity change, negative = growth inhibition"
CN(C)c1ccc(CC(=O)N2CCCCC2c2cc(C(=O)Nc3cccc(C#N)c3)no2)cc1 (centres undefined),"inconclusive [inhibitor, single point]",
CC1CCCN(C(=O)COC(=O)c2ccc3[nH]c4c(c3c2)CCCC4)C1 (centres undefined),"inconclusive [inhibitor, single point]",
O=C(CN1c2cccc3cccc(c23)S1(=O)=O)Nc1c(F)c(F)c(F)c(F)c1F,,inactive: -9.15%
CCc1ccccc1NC(=O)c1ccc(F)c(S(=O)(=O)N2CCN(c3cccc(Cl)c3)CC2)c1,"inconclusive [inhibitor, single point]",
CC(=O)N1CCc2cc(Br)cc(S(=O)(=O)NCc3ccc(Cl)cc3)c21,,inactive: 15.5%
CCc1cc(OCCCCNCc2ccccc2)ccc1Cl,active: 20.6 µM,
CCSc1ccc2c(c1)N(CCCN1CCN(C)CC1)c1ccccc1S2,active: 25.9 µM,
Cc1ccc(S(=O)(=O)c2cc3cc(C(=O)Nc4ccc(C)cc4C)ccc3oc2=O)cc1,,inconclusive: -34% [inhibitor]
CC(=O)c1ccsc1-c1c(C)cc2oc(=O)cc(-c3ccccc3)c2c1C,"inconclusive [inhibitor, single point]",
OC(COc1cccc2ccccc12)CN1CCN(c2ccccc2Cl)CC1 (centres undefined),active: 18.4 µM,
CC1CCCCN1CCCNC(=O)Cn1ncc2c3ccccc3n(C)c2c1=O (centres undefined),,inactive: 6.43%
COc1ccc(S(=O)(=O)N2CC3CCCN3c3cc(C(F)(F)F)ccc32)cc1 (centres undefined),active: 20.6 µM,
c1ccc(-c2ccc(OCCCn3cncn3)cc2)cc1,"inconclusive [inhibitor, single point]",
COc1ccc(-c2nc(CS(=O)CC(=O)NCc3ccc4c(c3)OCO4)c(C)o2)cc1OC (centres undefined),"inconclusive [inhibitor, single point]",
COc1ccccc1-c1cc(N)n[nH]1,"inconclusive [inhibitor, single point]",
COc1cccc(C(=O)Oc2cc(-c3ccccc3)no2)c1,,inactive: -8.91%
CCOc1ccc(NC(=O)CSc2oc(-c3ccc(C)cc3)nc2S(=O)(=O)c2ccc(C)cc2)cc1,active: 7.31 µM,
COc1ccc(-c2cc(C(F)(F)F)nc(NCc3ccc(F)cc3)n2)cc1,"inconclusive [inhibitor, single point]",
O=C(CCn1c(=S)[nH]c2ccccc2c1=O)Nc1ccc(F)cc1,"inconclusive [inhibitor, partial curve, poor fit]",
Cc1cccc(CN2C(=O)N/C(=C/c3cc(C)n(-c4cc(C)ccn4)c3C)C2=O)c1,"inconclusive [inhibitor, single point]",
O=C(Nc1ccc(C(=O)O)cc1)/C(=C\c1ccc([N+](=O)[O-])cc1)NC(=O)c1ccco1,,inactive: -25%
COC(=O)c1cc(C(=O)OC)n(Cc2ccc(C)cc2)c1C,,inactive: -17.5%
COc1ccc(N(C)S(=O)(=O)c2cccc(C(=O)N3CCN(c4cccc(C)c4C)CC3)c2)cc1,"inconclusive [inhibitor, single point]",

Structure (SMILES),Potency,"activity change, negative = growth inhibition"
COc1cccc(CNC(=O)C2CCCN(c3nn4c(=O)cc(C)nc4s3)C2)c1OC (centres undefined),,inactive: -29.9%
COc1cccc2cc(-c3cc(=O)oc4cc(C)c(OCC(C)=O)cc34)oc12,"inconclusive [inhibitor, partial curve, poor fit]",
Cc1nc2ccc(C(=O)OC(C)C(=O)c3c(C)[nH]c4ccccc34)cc2nc1C (centres undefined),"inconclusive [inhibitor, single point]",
COc1cccc(C(=O)N(Cc2ccc(C)o2)C2CCS(=O)(=O)C2)c1 (centres undefined),,inactive: -26.8%
CC(CN1CCCCC1)OC(=O)c1ccco1 (centres undefined),,inactive: 5.89%
COc1cccc(NC(=O)CSc2ncc(S(=O)(=O)c3ccccc3)c(=O)[nH]2)c1,"inconclusive [inhibitor, single point]",
O=C(COCc1cc(-c2cccs2)on1)Nc1cc(C(F)(F)F)ccc1Cl,"inconclusive [inhibitor, single point]",
O=C(Nc1ccc2c(c1)OCCO2)c1cccs1,"inconclusive [inhibitor, single point]",
O=C(N/N=C/c1ccsc1)c1cc(-c2cccs2)nc2ccccc12,active: 10.3 µM,
COC(=O)[C@@H](NC(=O)NCCC1=CCCCC1)C(C)C,,inactive: -17.7%
O=C1OCCN1C(=O)[C@H]1[C@H](c2ccc(F)cc2)C(c2ccccc2)=NN1c1ccc(Br)cc1,"inconclusive [inhibitor, single point]",
Cn1nc(-c2ccccc2)cc1NC(=O)Nc1ccc(C(C)(C)C)cc1,"inconclusive [inhibitor, single point]",
Cc1cc(Cl)ccc1NC(=O)CN1C(=O)NC2(CCCc3ccccc32)C1=O (centres undefined),"inconclusive [inhibitor, single point]",
Cc1ccc(O)c(-c2n[nH]c3c2C(c2ccc(F)cc2)N(Cc2ccco2)C3=O)c1 (centres undefined),"inconclusive [inhibitor, single point]",
COc1ccc(CNC(=O)c2ccc(Cn3nc(C)c([N+](=O)[O-])c3C)o2)cc1,"inconclusive [inhibitor, partial curve]",
Cc1cc(C)c(NC(=O)CSc2nc3c([nH]c4ccccc43)c(=O)n2C)c(C)c1,"inconclusive [inhibitor, partial curve]",
CC(C)Oc1cc(NC(=O)CS(=O)CC(=O)Nc2cccc(C(F)(F)F)c2)c(Cl)cc1Cl (centres undefined),active: 20.6 µM,
CC(C)(C)NS(=O)(=O)c1ccc(OCC(=O)NCCC2=CCCCC2)cc1,"inconclusive [inhibitor, partial curve]",
CC[C@]12c3[nH]c4cc(-c5ccco5)ccc4c3CCN1C(=O)[C@@H](CC(=O)NCc1ccc(OC)c(OC)c1)C[C@@H]2C(=O)N1CCN(C(=O)c2ccco2)CC1,"inconclusive [inhibitor, single point]",
CCOC(=O)c1sc(NC(=O)C(C)C)c(C#N)c1C,"inconclusive [inhibitor, single point]",
O=C(Nc1ccc2c(c1)nc1n2CCN(Cc2ccccc2)C1)NC1CCCCC1,"inconclusive [inhibitor, single point]",
O=C(Nc1cccc(C(=O)O)c1)/C(=C/c1ccccc1)NC(=O)c1cccc(Br)c1,,inactive: 3.17%
Cc1ccccc1NC(=O)N1CCN(C/C=C/c2ccccc2)CC1,"inconclusive [inhibitor, single point]",
